In one assay the test system is HSkMC. The assay is described as follows: cytotoxicity call (relative viability < 0.9). Particulars: 10 µM.
The test system of a further assay is HepG2. Put plainly: cytotoxicity call (relative viability < 0.9). To be noted: 10 µM.
A further assay relates to S. aureus RN4220. Put plainly: growth inhibition call (relative growth <= 0.2). Particulars: 50 µM.

The list shows a part of the results.

For 28 compounds, cytotoxicity call and growth inhibition call results are on record in the antibiotic and cytotoxicity screens of Wong et al. (2023).

In the case of `C=CCN(CCCC)C(=O)[C@H]1N(CCOCCO)C(=O)[C@H]2[C@H](C(=O)O)[C@@H]3C=C[C@@]21O3`, the cytotoxicity call in the assay on HSkMC and in the assay on HepG2 was “inactive” in each case. Further, in the assay on S. aureus RN4220, the growth inhibition call is “inactive”.

As for `Cc1noc(C)c1S(=O)(=O)N(C)C[C@@H]1Oc2ccc(NS(C)(=O)=O)cc2CC(=O)N([C@@H](C)CO)C[C@@H]1C`, the cytotoxicity call with HSkMC and with HepG2 was “inactive” throughout. In the assay on S. aureus RN4220, the growth inhibition call was “inactive”.

For the compound `COc1ccc(S(=O)(=O)Nc2ccc3c(c2)C(=O)N([C@@H](C)CO)C[C@H](C)[C@@H](CN(C)C(=O)Nc2c(C)noc2C)OCCCC[C@@H](C)O3)cc1`, the cytotoxicity call with HSkMC and with HepG2 was “inactive” each time. In the assay on S. aureus RN4220, the growth inhibition call was “inactive”.

Consider `CC1=C2C(O)C(=O)OC3CC4C(C)(C)C(=O)C=CC4(C)C(CC1)C23C` (centres undefined), for which the cytotoxicity call in the assay with HSkMC and with HepG2 was “inactive” in each case. Further, in the assay with S. aureus RN4220, the growth inhibition call is “inactive”.

With `Cc1noc(C)c1S(=O)(=O)N(C)C[C@@H]1Oc2ccc(NC(=O)Nc3ccccc3)cc2CC(=O)N([C@@H](C)CO)C[C@H]1C`, the cytotoxicity call with HSkMC and in the assay on HepG2 was “inactive” throughout. Moreover, the growth inhibition call in the assay on S. aureus RN4220 was “inactive”.

For the compound `O=C(C[C@@H]1C[C@H]2c3cc(NS(=O)(=O)c4ccc(F)cc4)ccc3O[C@H]2[C@@H](CO)O1)NCc1cccnc1`, the cytotoxicity call with HSkMC and in the assay on HepG2 was “inactive” in each case. In addition, the growth inhibition call in the assay on S. aureus RN4220 is “inactive”.

As to `C[C@H]1CN([C@@H](C)CO)C(=O)c2cc(NC(=O)CCN3CCOCC3)ccc2O[C@@H]1CN(C)Cc1ccc(C(=O)O)cc1`, the cytotoxicity call in the assay with HSkMC and with HepG2 was “inactive” throughout. For the same compound, in the assay on S. aureus RN4220, the growth inhibition call was “inactive”.

For the compound `C[C@@]1(C(=O)O)CCCC[C@@H]1N`, the cytotoxicity call in the assay with HSkMC and in the assay on HepG2 was “inactive” in each case. In the assay on S. aureus RN4220, the growth inhibition call was “inactive”.

Consider `COc1ccc2c3c([nH]c2c1)[C@@H](CO)N(C[C@]13CCN(CC1)Cc1ccccc1F)S(=O)(=O)c1cn(cn1)C`, for which the cytotoxicity call in the assay on HSkMC and in the assay on HepG2 was “inactive” throughout. The growth inhibition call in the assay on S. aureus RN4220 is “inactive”.

Regarding `C[C@H](CO)N1C[C@H](C)[C@H](CN(C)C(=O)c2ccccc2)OCCCC[C@H](C)Oc2ccc(NC(=O)Nc3ccccc3)cc2C1=O`, the cytotoxicity call with HSkMC and in the assay on HepG2 was “inactive” each time. In addition, the growth inhibition call with S. aureus RN4220 is “inactive”.

Regarding `COc1ccc(CN(C)C[C@@H]2OCCCC[C@@H](C)Oc3ccc(NC(=O)c4ccccc4)cc3C(=O)N([C@H](C)CO)C[C@H]2C)cc1`, the cytotoxicity call in the assay with HSkMC and in the assay on HepG2 was “inactive” in each case. For the same compound, the growth inhibition call in the assay with S. aureus RN4220 is “inactive”.

Regarding `C[C@H]1CCCCO[C@H](CN(C)C(=O)Cc2ccccc2)[C@@H](C)CN([C@@H](C)CO)C(=O)c2cc(NC(=O)NC3CCCCC3)ccc2O1`, the cytotoxicity call with HSkMC and in the assay with HepG2 was “inactive” in each case. Further, the growth inhibition call with S. aureus RN4220 was “inactive”.

As for `O=C(C[C@H]1CC[C@@H]2[C@H](COC[C@H](O)CN2C(=O)Nc2ccc3c(c2)OCO3)O1)N1CCN(c2ccccc2)CC1`, the cytotoxicity call with HSkMC and in the assay on HepG2 was “inactive” each time. Moreover, the growth inhibition call in the assay with S. aureus RN4220 is “inactive”.

Consider `CC1(C)CNCC(=O)NC1`, for which the cytotoxicity call in the assay on HSkMC and in the assay with HepG2 was “inactive” throughout. The growth inhibition call in the assay with S. aureus RN4220 is “inactive”.

For `O=C(C[C@@H]1CC[C@@H]2[C@H](COC[C@@H](O)CN2C(=O)c2ccc3c(c2)OCO3)O1)NCCN1CCCCC1`, the cytotoxicity call with HSkMC and with HepG2 was “inactive” throughout. The growth inhibition call in the assay on S. aureus RN4220 is “inactive”.

Regarding `Cc1cc([C@@H](O)CCCN)ccc1F`, the cytotoxicity call with HSkMC and in the assay on HepG2 was “inactive” each time. In the assay on S. aureus RN4220, the growth inhibition call is “inactive”.

Consider `Cc1ccc(S(=O)(=O)Nc2cccc3c2O[C@@H](CN(C)Cc2ccc(Cl)c(Cl)c2)[C@H](C)CN([C@H](C)CO)C3=O)cc1`, for which the cytotoxicity call in the assay on HSkMC and in the assay with HepG2 was “inactive” each time. The growth inhibition call in the assay with S. aureus RN4220 is “inactive”.

In the case of `COCCN(C)C(=O)c1ccc2nnc([C@H]3CN(S(C)(=O)=O)CCN3C)n2c1`, the cytotoxicity call with HSkMC and with HepG2 was “inactive” each time. Also, the growth inhibition call with S. aureus RN4220 is “inactive”.

With `O=[N+]([O-])c1cncn1CCN1CCOCC1`, the cytotoxicity call in the assay with HSkMC and with HepG2 was “inactive” throughout. Moreover, the growth inhibition call in the assay on S. aureus RN4220 is “inactive”.

Consider `COc1ccc(-c2cnc3c(c2)C(=O)N([C@@H](C)CO)C[C@H](C)[C@@H](CN(C)C(=O)C2CCOCC2)O3)cc1`, for which the cytotoxicity call in the assay with HSkMC and in the assay on HepG2 was “inactive” throughout. Also, the growth inhibition call in the assay with S. aureus RN4220 is “inactive”.

Regarding `C[C@H]1CN([C@@H](C)CO)C(=O)c2cccc(NC(=O)Nc3ccc4c(c3)OCO4)c2O[C@@H]1CN(C)S(=O)(=O)c1cn(C)cn1`, the cytotoxicity call in the assay on HSkMC and with HepG2 was “inactive” in each case. In addition, the growth inhibition call in the assay on S. aureus RN4220 is “inactive”.

As to `C[C@@H]1CN([C@@H](C)CO)C(=O)c2cccc(NS(=O)(=O)c3cccs3)c2O[C@H]1CN(C)Cc1ccc(Oc2ccccc2)cc1`, the cytotoxicity call with HSkMC and in the assay on HepG2 was “inactive” each time. Also, the growth inhibition call in the assay on S. aureus RN4220 is “inactive”.

As to `O=C(Cc1ccncc1)NCC[C@@H]1CC[C@@H](NC(=O)C2CCOCC2)[C@@H](CO)O1`, the cytotoxicity call in the assay with HSkMC and in the assay with HepG2 was “inactive” each time. In the assay with S. aureus RN4220, the growth inhibition call was “inactive”.

For the compound `C[C@H](CO)N1C[C@H](C)[C@H](CN(C)Cc2ccc(Oc3ccccc3)cc2)Oc2ccc(NS(=O)(=O)c3ccc(Cl)cc3)cc2C1=O`, the cytotoxicity call with HSkMC and with HepG2 was “inactive” in each case. In addition, the growth inhibition call in the assay on S. aureus RN4220 was “inactive”.

For the compound `CC(C)CC#Cc1ccc2c(c1)O[C@@H](CN(C)C(=O)NC1CCCC1)[C@H](C)CN([C@H](C)CO)S2(=O)=O`, the cytotoxicity call with HSkMC and with HepG2 was “inactive” in each case. Besides, the growth inhibition call in the assay on S. aureus RN4220 was “inactive”.

For the compound `O=C(O)CNC(=O)C1CCC1`, the cytotoxicity call with HSkMC and in the assay on HepG2 was “inactive” in each case. Besides, the growth inhibition call in the assay on S. aureus RN4220 is “inactive”.

In the case of `C[C@H](O)C#Cc1ccc2c(c1)O[C@@H](CN(C)C(=O)C1CCCCC1)[C@H](C)CN([C@@H](C)CO)S2(=O)=O`, the cytotoxicity call in the assay with HSkMC and with HepG2 was “inactive” throughout. Moreover, in the assay on S. aureus RN4220, the growth inhibition call is “inactive”.

As for `c1n[nH]nc1SSc1cn[nH]n1`, the cytotoxicity call in the assay on HSkMC (human skeletal muscle cells) and with HepG2 was “inactive” each time. For the same compound, in the assay with S. aureus RN4220, the growth inhibition call is “active”.
